From PubChem BioAssay AID1347165 (National Center for Advancing Translational Sciences (NCATS), 2019)
About 5,700 (2.6%) of roughly 220,000 compounds were called active. The inconclusive results got no clear call from the source; some entries with a clear call stand among them for comparison. Calls come from the whole dose curve; as a rule, active = well fitted inhibition curve with a large enough effect; inconclusive = small, poorly fitted or top-dose-only effect; inactive = no such curve, though single readings can be large or run the other way. Where the call is inconclusive, the potency comes from a doubtful curve fit.

The compounds below were run against Lysine-specific demethylase 5B (Homo sapiens) (UniProt Q9UGL1) (assay: Primary screen for KDM5B Histone Demethylases FDH-coupled qHTS). Conditions: FDH-coupled NADH fluorescence (FDH is formaldehyde dehydrogenase); activity change, negative = inhibition: at 57.7 µM (top of the series).
Sequence of UniProt Q9UGL1 (Q9UGL1 whole entry, looked up): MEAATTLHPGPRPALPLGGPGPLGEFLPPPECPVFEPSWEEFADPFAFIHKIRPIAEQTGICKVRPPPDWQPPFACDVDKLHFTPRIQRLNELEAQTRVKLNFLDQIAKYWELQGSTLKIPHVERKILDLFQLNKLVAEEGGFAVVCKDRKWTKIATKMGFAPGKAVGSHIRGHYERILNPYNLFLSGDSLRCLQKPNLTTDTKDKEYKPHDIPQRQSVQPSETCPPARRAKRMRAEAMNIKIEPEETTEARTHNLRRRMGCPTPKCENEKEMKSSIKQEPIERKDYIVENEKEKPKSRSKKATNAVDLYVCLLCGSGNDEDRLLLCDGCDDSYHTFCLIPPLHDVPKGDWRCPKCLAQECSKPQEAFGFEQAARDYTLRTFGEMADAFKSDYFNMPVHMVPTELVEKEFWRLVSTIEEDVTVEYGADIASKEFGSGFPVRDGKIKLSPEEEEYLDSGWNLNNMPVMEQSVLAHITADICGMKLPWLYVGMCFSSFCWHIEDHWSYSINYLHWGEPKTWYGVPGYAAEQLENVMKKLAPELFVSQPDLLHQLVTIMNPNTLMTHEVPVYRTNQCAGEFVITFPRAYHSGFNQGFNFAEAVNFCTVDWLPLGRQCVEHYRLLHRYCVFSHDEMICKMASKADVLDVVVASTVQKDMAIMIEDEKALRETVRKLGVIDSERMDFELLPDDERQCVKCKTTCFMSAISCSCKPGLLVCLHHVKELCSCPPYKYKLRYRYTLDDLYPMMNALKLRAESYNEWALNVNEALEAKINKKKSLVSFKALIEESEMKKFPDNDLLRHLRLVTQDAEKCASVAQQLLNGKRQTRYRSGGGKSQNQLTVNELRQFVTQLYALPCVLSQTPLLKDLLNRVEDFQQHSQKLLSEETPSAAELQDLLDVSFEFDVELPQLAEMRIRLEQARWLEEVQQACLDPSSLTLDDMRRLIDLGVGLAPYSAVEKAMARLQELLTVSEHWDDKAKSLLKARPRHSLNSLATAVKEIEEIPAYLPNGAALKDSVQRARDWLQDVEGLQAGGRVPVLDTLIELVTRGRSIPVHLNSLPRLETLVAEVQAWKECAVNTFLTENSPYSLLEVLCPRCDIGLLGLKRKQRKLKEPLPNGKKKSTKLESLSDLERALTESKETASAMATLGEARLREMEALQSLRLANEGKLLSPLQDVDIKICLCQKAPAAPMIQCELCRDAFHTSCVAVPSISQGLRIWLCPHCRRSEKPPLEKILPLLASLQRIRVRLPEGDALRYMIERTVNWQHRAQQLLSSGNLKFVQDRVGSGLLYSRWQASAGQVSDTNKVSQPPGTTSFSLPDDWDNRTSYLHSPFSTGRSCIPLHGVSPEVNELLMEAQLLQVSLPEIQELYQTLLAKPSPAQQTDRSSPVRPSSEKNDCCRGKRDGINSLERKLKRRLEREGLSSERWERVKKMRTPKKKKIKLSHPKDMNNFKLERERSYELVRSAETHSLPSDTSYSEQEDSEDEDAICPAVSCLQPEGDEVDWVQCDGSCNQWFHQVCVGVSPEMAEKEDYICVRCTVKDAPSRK
How it was run: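 Compound dilutions met 200 nM (final) KDM5BΔAP for 10 min at room temperature before substrate addition. The substrate mix held 12.5 µM H3K4me3 with cofactors 25 µM α-ketoglutarate and 50 µM Fe²⁺. NADH signal gain over 30 min defined activity.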
Note: nearly all actives have a fitted effect of over 70% in size.
Potency is the fitted concentration of half-maximal effect; tags give direction and shape of the fitted curve.
Throughout, for activity change, negative = inhibition: 0% is about no effect.

| Compound | Potency | activity change, negative = inhibition |
| --- | --- | --- |
| COc1cc(/C=C/c2nc3ccccc3c(=O)n2-c2ccc(O)cc2)ccc1O | inconclusive: 25.1 µM [inhibitor, single point] | – |
| CCn1c(O)c(/C=N/NC(=O)c2ccccc2)c(=O)[nH]c1=S | inconclusive: 12.6 µM [inhibitor, partial curve, poor fit] | – |
| CCOc1cc(CNCCc2cccc(F)c2)ccc1OC | inconclusive: 12.6 µM [inhibitor, partial curve, poor fit] | – |
| CCn1nccc1C(=O)N1CCC2(CC1)c1nccn1-c1ccccc1CN2C | inconclusive: 4.47 µM [inhibitor, partial curve, poor fit] | – |
| COc1c(/C=C(\C)[N+](=O)[O-])cc2c(c1OC)OCO2 | inconclusive: 10 µM [inhibitor, partial curve, poor fit] | – |
| CC(C)CCN(C1CCNCC1)C1CCOCC1 | inconclusive: 28.2 µM [inhibitor, partial curve, poor fit] | – |
| COc1cc2c(cc1OCCN(C)C)NC(=O)C21CCN(Cc2ccccc2)CC1 | – | inactive: -25.6% [at 86.2 µM] |
| O=C(Nc1ccc2n(c1=O)C[C@H]1C[C@@H]2CN(c2ncccn2)C1)c1ccccc1 | – | inactive: -23.9% [at 86.2 µM] |
| COc1ccc(-c2nc(CN3C(=O)CN=C(c4ccccc4Cl)c4cc(Cl)ccc43)c(C)o2)cc1OC | inconclusive: 25.1 µM [inhibitor, single point] | – |
| COc1cc2c(cc1OCc1ccccc1)NC(=O)C21CCN(Cc2ccccn2)CC1 | – | inactive: -1.86% [at 86.2 µM] |
| O=[N+]([O-])/C=C\c1ccc2c(c1)OCO2 | inconclusive: 12.6 µM [inhibitor, partial curve, poor fit] | – |
| COc1cc2c(cc1Oc1ccccc1)NC(=O)C21CCN(c2ncc(C(C)C)cn2)CC1 | active: 28.2 µM | – |
| N#Cc1cccc(-c2ccc3n(c2=O)C[C@H]2C[C@@H]3CN(C(=O)c3ccc(F)cc3)C2)c1 | active: 31.6 µM | – |
| Cc1cccc(N2C(=O)NC(=O)/C(=C\C=C\c3ccco3)C2=O)c1 | inconclusive: 28.2 µM [inhibitor, partial curve, poor fit] | – |
| CC1OC(OC2CCC3(C=O)[C@H]4CCC5(C)C(C6=CC(=O)OC6)CCC5(O)[C@@H]4CCC3(O)C2)CC2OC(C)(C)OC12 (stereo not given in full) | – | inactive: 1.71% |
| O=C(O)C1=NOC2CN(Cc3cccc(Br)n3)CC12 (stereo not given) | inconclusive: 89.1 µM [inhibitor, partial curve] | – |
| O=C(Nc1ccc(=O)n2c1[C@@H]1C[C@@H](CN(C(=O)c3ccc(F)cc3)C1)C2)C1CCCCC1 | – | inactive: 166% |
| COc1ccccc1-c1cc([C@H]2CN3CC[C@H]2C[C@@H]3CNC(=O)CCC(=O)O)nc(C)n1 | active: 31.6 µM | – |
| COCCN1CCC(N2CCN(C(=O)Cc3cccc(C)c3)CC2)C1=O (stereo not given) | – | inactive: 0.0947% |
| ClC1=CC[C@@H]2CN(CCN3CCOCC3)C[C@@H]2C1 | – | inactive: 8.22% |
| CC(OC(=O)c1cn(C)c2ccccc12)C(=O)NC(N)=O (stereo not given) | – | inactive: 7.5% |
| N#Cc1ccc(C(=O)N2C[C@@H]3C[C@H](C2)c2c(-c4ccccc4F)ccc(=O)n2C3)cc1 | inconclusive: 8.91 µM [inhibitor, single point] | – |
| CN1CCN(C(=O)Cc2c[nH]c3ncc(-c4cccc(OC(F)(F)F)c4)cc23)CC1 | active: 35.5 µM | – |
| Cc1ccc(C(=O)Nc2cccc3cnccc23)cc1S(=O)(=O)N1CCCCC1 | inconclusive: 11.2 µM [inhibitor, partial curve, poor fit] | – |

| Compound | Potency | activity change, negative = inhibition |
| --- | --- | --- |
| C/C(=C\c1ccc2c(c1)OCO2)[N+](=O)[O-] | inconclusive: 20 µM [inhibitor, partial curve, poor fit] | – |
| CSCC(=O)Nc1ccc(=O)n2c1[C@@H]1C[C@@H](CN(C(=O)c3ccc(F)cc3)C1)C2 | – | inactive: 112% [at 86.2 µM] |
| Cn1nc(-c2cccs2)cc1[C@H]1CN2CC[C@H]1C[C@@H]2COC(=O)Nc1cccc(C(F)(F)F)c1 | inconclusive: 31.6 µM [inhibitor, single point] | – |
| O=C1NCCCCCCN(Cc2cccnc2)[C@H]2CCC[C@@H]12 | active: 7.94 µM | – |
| O=C1NC(=O)N(c2ccc3c(c2)OCO3)C(=O)/C1=C\c1ccsc1 | inconclusive: 22.4 µM [inhibitor, partial curve, poor fit] | – |
| CC(=O)C(C#N)c1ccccc1 (stereo not given) | – | inactive: 12% |
| C=C[C@H]1CN2CC[C@H]1C[C@@H]2CNC(=O)Nc1ccc(Br)cc1 | – | inactive: 6.19% [at 86.2 µM] |
| CCCCc1ccc2[nH]c(C)c(CCN)c2c1 | inconclusive: 39.8 µM [inhibitor, single point] | – |
| CC(C)C1=NOC2(CCCN(Cc3ccccn3)C2)C1 (stereo not given) | inconclusive: 100 µM [inhibitor, partial curve] | – |
| Cc1cncc(N2CC3CCC(C2)N3CC(F)(F)F)c1 | – | inactive: 12% [at 149 µM] |
| CCCS(=O)(=O)Nc1ccc(=O)n2c1[C@@H]1C[C@@H](CN(C(=O)c3ccc(OC)cc3)C1)C2 | – | inactive: -21.8% |
| C=CCn1c(O)c(/C=N/NC(=O)c2ccncc2)c(=O)[nH]c1=O | inconclusive: 10 µM [inhibitor, partial curve, poor fit] | – |
| Cc1ccc(Cn2nc(C)c(C(=O)NCc3cc(Cl)c4c(c3)OCCCO4)c2C)cc1 | – | inactive: -8.35% |
| O=C(Cc1c(F)cccc1Cl)N1CCN(Cc2ccccc2)CC(O)C1 (stereo not given) | inconclusive: 17.8 µM [inhibitor, partial curve, poor fit] | – |
| COc1cc2c(cc1OCc1ccccc1)N(C(=O)Cc1ccc3c(c1)OCO3)CC21CCN(C)CC1 | inconclusive: 39.8 µM [inhibitor, single point] | – |
| COc1ccc(Cl)cc1NC(=O)c1sc2nc3c(cc2c1N)N1CCC3CC1 | inconclusive: 10 µM [inhibitor, partial curve, poor fit] | – |
| Cc1nc(-c2cccs2)cc([C@H]2CN3CC[C@H]2C[C@@H]3CNC(=O)C(C)(C)C)n1 | inconclusive: 31.6 µM [inhibitor, partial curve, poor fit] | – |
| CCOC(=O)c1ccc(NC(=O)c2cccn(Cc3ccccc3F)c2=O)cc1 | inconclusive: 4.47 µM [inhibitor, partial curve, poor fit] | – |
| CN1CCN(C(=O)Cc2c[nH]c3ncc(-c4ccc5c(c4)OCO5)cc23)CC1 | inconclusive: 39.8 µM [inhibitor, partial curve, poor fit] | – |
| O=C(c1ccccc1)N1C[C@@H]2C[C@H](C1)c1ccc(-c3cncnc3)c(=O)n1C2 | active: 39.8 µM | – |
| CC(=O)N1CCC2(C1)N=C(c1cccnc1)C(=O)N2 (stereo not given) | active: 35.5 µM | – |
| c1ccc(CCNCC2CCCCC2)cc1 | – | inactive: -7.7% |
| O=C1NC2(CCCN(Cc3cccnc3)C2)COc2ccccc21 (stereo not given) | inconclusive: 35.5 µM [inhibitor, partial curve] | – |
| CN1C(=O)C(=Cc2coc3ccccc3c2=O)C(=O)N(C)C1=O | inconclusive: 17.8 µM [inhibitor, partial curve, poor fit] | – |

| Compound | Potency | activity change, negative = inhibition |
| --- | --- | --- |
| CNC(C)c1cccc(Cl)c1 (stereo not given) | – | inactive: 5.29% [at 230 µM] |
| Cc1nc(-c2ccc(N(C)C)cc2)cc([C@H]2CN3CC[C@H]2C[C@@H]3COC(=O)Nc2ccccc2)n1 | inconclusive: 3.16 µM [inhibitor, partial curve, poor fit] | – |
| Cc1nc(-c2cccs2)cc([C@H]2CN3CC[C@H]2C[C@@H]3COC(=O)Nc2ccc(C(C)C)cc2)n1 | inconclusive: 22.4 µM [inhibitor, partial curve] | – |
| O=C(O)CCCC(=O)N1C[C@@H]2C[C@H](C1)c1ccc(-c3ccc(Cl)cc3)c(=O)n1C2 | active: 39.8 µM | – |
| CCCCC(=O)N/N=C/c1c(O)n(CCC2=CCCCC2)c(=O)[nH]c1=O | inconclusive: 10 µM [inhibitor, partial curve, poor fit] | – |
| Cn1ccnc1CN1C(=O)NC2(CCNCC2)C1=O | – | inactive: 7.64% |
| CC1=NOC2(CCN(Cc3ccc(F)cc3)C2)C1 (stereo not given) | – | inactive: -34.6% [at 86.2 µM] |
| O=C(CCc1nc(C2=CCN(Cc3cccc(Cl)c3)CC2)no1)Nc1ccccc1F | inconclusive: 15.8 µM [inhibitor, partial curve, poor fit] | – |
| Cc1ccsc1C(=O)N1CCC2(CC1)NCc1ccccc1-n1ccnc12 | – | inactive: -22.2% |
| C#CCN1CCN(c2cccc(C)c2)CC1 | – | inactive: 23.5% |
| O=c1c2ccccc2nc(/C=C/c2ccc(O)cc2)n1-c1ccc(O)cc1 | inconclusive: 39.8 µM [inhibitor, single point] | – |
| COc1cncc(-c2cc3c(cc2OC)C2(CCN(C(C)=O)CC2)C(=O)N3)c1 | – | inactive: -4.58% [at 86.2 µM] |
| N#Cc1ccc(NC(=O)COC(=O)c2nc(-c3ccccc3)n(-c3ccccc3)n2)cc1Cl | – | inactive: -0.668% |
| CC(C)N1C[C@@H]2OCC(=O)N(CC3CC3)[C@@H]2C1 | – | inactive: -6.71% [at 115 µM] |
| COCC1CN(Cc2cccnc2)CC12CCNCC2 (stereo not given) | inconclusive: 17.8 µM [inhibitor, partial curve, poor fit] | – |
| CCc1cnc(N2CCC3(CC2)C(=O)Nc2cc(OC4CCCC4)c(OC)cc23)nc1 | active: 35.5 µM | – |
| Cc1c(OC(=O)N(C)C)ccc2c1O/C(=C\c1ccco1)C2=O | inconclusive: 28.2 µM [inhibitor, single point] | – |
| O=c1ccc(-c2ccccc2F)c2n1C[C@H]1C[C@@H]2CN(Cc2ccc(CO)o2)C1 | inconclusive: 31.6 µM [inhibitor, partial curve] | – |
| O=C(Nc1ccon1)c1cccn(Cc2ccccc2)c1=O | inconclusive: 31.6 µM [inhibitor, partial curve, poor fit] | – |
| COc1ccccc1-c1cc([C@H]2CN3CC[C@H]2C[C@@H]3COC(=O)NC(C)C)nc(C)n1 | active: 39.8 µM | – |
| CC[C@H]1CN2CC[C@H]1C[C@@H]2CNC(=O)c1ccc2c(c1)OCO2 | – | inactive: -18.8% [at 86.2 µM] |
| Cc1nc(-c2ccc(N(C)C)cc2)cc([C@H]2CN3CC[C@H]2C[C@@H]3CNC(=O)C2CCC2)n1 | active: 39.8 µM | – |
